Reference: PMC4336329 (PLoS ONE, 2015)
Among all 310,000 compounds or so, about 14,000 (4.5%) showed an effect of 50% or more. Effects have a minus sign here. The list shows a part of the results.

Target: human ether-à-go-go-related gene (hERG) potassium channel (human, UniProt Q12809)
Experiment: primary screen, population patch clamp on CHO cells stably expressing hERG
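Further: peak tail current of the secondary pulse compared with the same well before compound.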

human ether-à-go-go-related gene (hERG) potassium channel, sequence (Q12809 whole entry, looked up): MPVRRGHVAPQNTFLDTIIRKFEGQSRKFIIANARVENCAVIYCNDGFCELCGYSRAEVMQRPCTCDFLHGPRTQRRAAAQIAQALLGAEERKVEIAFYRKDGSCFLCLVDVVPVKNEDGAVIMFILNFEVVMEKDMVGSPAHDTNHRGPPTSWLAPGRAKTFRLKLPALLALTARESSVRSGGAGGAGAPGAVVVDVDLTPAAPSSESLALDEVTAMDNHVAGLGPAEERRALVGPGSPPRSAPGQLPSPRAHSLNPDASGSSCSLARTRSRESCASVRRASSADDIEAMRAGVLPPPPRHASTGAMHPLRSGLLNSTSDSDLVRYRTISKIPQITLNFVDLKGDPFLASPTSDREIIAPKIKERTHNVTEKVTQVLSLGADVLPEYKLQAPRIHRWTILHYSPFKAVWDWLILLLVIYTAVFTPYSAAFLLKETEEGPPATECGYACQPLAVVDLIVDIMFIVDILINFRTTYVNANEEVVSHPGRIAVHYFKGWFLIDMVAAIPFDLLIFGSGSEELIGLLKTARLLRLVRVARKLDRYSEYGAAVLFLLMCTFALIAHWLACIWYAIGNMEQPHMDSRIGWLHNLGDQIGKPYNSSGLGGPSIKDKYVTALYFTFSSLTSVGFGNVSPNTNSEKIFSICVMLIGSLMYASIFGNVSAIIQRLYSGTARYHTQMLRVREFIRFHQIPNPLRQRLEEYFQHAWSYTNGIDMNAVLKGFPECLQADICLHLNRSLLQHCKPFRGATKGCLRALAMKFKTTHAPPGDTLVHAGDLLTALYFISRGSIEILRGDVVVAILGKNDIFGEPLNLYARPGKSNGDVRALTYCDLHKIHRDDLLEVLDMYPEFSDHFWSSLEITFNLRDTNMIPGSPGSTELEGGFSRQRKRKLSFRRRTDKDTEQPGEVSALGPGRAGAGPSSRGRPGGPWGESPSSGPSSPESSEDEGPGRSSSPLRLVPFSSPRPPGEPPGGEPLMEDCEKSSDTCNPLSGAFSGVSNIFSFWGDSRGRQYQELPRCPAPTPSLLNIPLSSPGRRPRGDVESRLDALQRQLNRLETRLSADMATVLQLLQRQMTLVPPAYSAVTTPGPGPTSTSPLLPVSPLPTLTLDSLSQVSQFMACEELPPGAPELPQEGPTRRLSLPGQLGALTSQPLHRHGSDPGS

Going from `O=C(NCCc1c[nH]c2ccccc12)c1ccc(-n2cnnn2)cc1` to `CCc1ccccc1NC(=O)c1ccc(-n2c(C)ccc2C)cc1`, the “hERG current change (%, negative = inhibition) at 10uM” value rises from -31.1% to -12.1%.

Going from `Cc1ccc(CN(C(=O)COc2ccc([N+](=O)[O-])cc2)C2CCS(=O)(=O)C2)o1` (centres unmarked) to `CCCOc1ccc(/C=C2\SC(=S)N(CC3CCCO3)C2=O)cc1` (centres unmarked), the “hERG current change (%, negative = inhibition) at 10uM” value rises from -34.4% to 16.9%.

Going from `O=C(C1CCCCC1)N1CCc2ccccc21` to `O=C(OCC(=O)N1CCc2ccccc21)C1=COCCO1`, the “hERG current change (%, negative = inhibition) at 10uM” value falls from 11.7% to 6.94%.

First: CCC(=O)Nc1nnc(SCc2ccccc2F)s1
Second: O=C(Nc1nnc(Cc2ccccc2F)s1)Nc1ccccc1F
The “hERG current change (%, negative = inhibition) at 10uM” value of the first is lower: 11.4% for the first, 17% for the second.

Going from `CN(CC(=O)Nc1nc2ccc(F)cc2s1)S(=O)(=O)c1ccc(Cl)cc1` to `O=C(Nc1ncn[nH]1)c1ccc(Cl)c(S(=O)(=O)Nc2ccc(Cl)cc2)c1`, the “hERG current change (%, negative = inhibition) at 10uM” value falls from 11.9% to 1.55%.

First: COc1cc(C(=S)N2CCOCC2)ccc1OS(=O)(=O)c1ccccc1[N+](=O)[O-]
Second: COc1ccc(CC(=O)Nc2ccccc2C(=O)N2CCOCC2)cc1
The “hERG current change (%, negative = inhibition) at 10uM” value of the first is lower: -1.24% for the first, 13.6% for the second.

First: COc1ccc(NC(=S)N2CCCN(Cc3cccc(Cl)c3)C2)cc1
Second: COc1ccc(OC)c(S(=O)(=O)N2CCC(C(=O)N3CCN(Cc4ccccc4)CC3)CC2)c1
The “hERG current change (%, negative = inhibition) at 10uM” value of the first is lower: -38.6% for the first, -4.4% for the second.

Compared with `COC(=O)C1CCN(C(=O)COC(=O)CC(NC(C)=O)c2ccccc2)CC1` (centres unmarked), `CC(=O)NC(CC(=O)N1CCN(C(C)=O)CC1)c1ccccc1` (centres unmarked) is higher in “hERG current change (%, negative = inhibition) at 10uM” value: 9.35% for the first, 27% for the second.

Going from `CCc1c(C)sc(NC(=O)c2cc(CC(C)C)on2)c1C#N` to `CCSc1ncc(Cl)c(C(=O)Nc2cc(C)ccc2C)n1`, the “hERG current change (%, negative = inhibition) at 10uM” value falls from 11% to 9.9%.

Going from `C=C1CCC(OC(C)=O)C2(C)CCC3C(C)C(=O)OC3C12O` (centres unmarked) to `CC1CC[C@@]2(OC1)O[C@H]1CC3[C@@H]4C[C@@H](O)[C@@]5(O)C[C@@H](O)[C@H](O)C[C@]5(C)[C@H]4CC[C@]3(C)[C@H]1[C@@H]2C` (some centres unmarked), the “hERG current change (%, negative = inhibition) at 10uM” value falls from 14.4% to 8.38%.

First: Cc1n[nH]c(C)c1S(=O)(=O)N1CCCCCC1
Second: CC12CCC(=O)N1C(C(=O)Nc1cc(S(=O)(=O)N3CCCCCC3)ccc1OCC(F)(F)F)CS2 (centres unmarked)
The “hERG current change (%, negative = inhibition) at 10uM” value of the first is higher: -13.9% for the first, -44.1% for the second.

First: Cc1nn(C)cc1S(=O)(=O)N1CCN(Cc2ccc(F)cc2Cl)CC1
Second: Cc1ccc(Cl)cc1N1CCN(C(=O)CCCn2c(=O)c3cccn3c3cccnc32)CC1
The “hERG current change (%, negative = inhibition) at 10uM” value of the first is higher: -15% for the first, -15.1% for the second.

Going from `O=C(NCCCN1CCOCC1)C(=O)N/N=C/c1cccc2ccccc12` to `Cc1cccc(NS(=O)(=O)c2ccc(C(=O)NCC(C)(C)N3CCOCC3)cc2)c1C`, the “hERG current change (%, negative = inhibition) at 10uM” value falls from -27% to -33.8%.

Going from `O=c1oc2ccccc2n1Cn1c(=O)oc2ccccc21` to `COC(=O)Cn1nc(-c2ccccc2)c2ccccc21`, the “hERG current change (%, negative = inhibition) at 10uM” value falls from 14.4% to 4.12%.

First: O=c1cc(O)c(-c2ccccc2Cl)c(Cl)[nH]1
Second: O=C(Cc1c(F)cccc1Cl)Nc1ccccc1-c1ccccc1
The “hERG current change (%, negative = inhibition) at 10uM” value of the first is higher: 8.23% for the first, 3.51% for the second.

Compared with `COc1ccccc1C(=O)COC(=O)CSC(C)C(=O)Nc1cc(C)on1` (centres unmarked), `COc1ccc(C)cc1NC(=O)NNC(=O)C(C)Oc1ccc(F)cc1Cl` (centres unmarked) is lower in “hERG current change (%, negative = inhibition) at 10uM” value: -13.7% for the first, -22.4% for the second.

Compared with `COc1ccc(Cc2nc(-c3ccccn3)no2)cc1`, `Cc1ccc(-c2noc(CSc3nnnn3-c3ccccc3)n2)cc1` is higher in “hERG current change (%, negative = inhibition) at 10uM” value: -10.3% for the first, 17.6% for the second.

First: Cc1ccc(S(=O)(=O)NC(=O)Nc2c(C)n(C)n(-c3ccccc3)c2=O)cc1
Second: Cc1ccc(S(=O)(=O)N2[C@@H](c3ccc(F)cc3)C(C(=O)O)=CC[C@H]2c2cccs2)cc1
The “hERG current change (%, negative = inhibition) at 10uM” value of the first is higher: 3.33% for the first, -1.43% for the second.

Going from `O=C(CN1C(=O)C2CCCCC2C1=O)Nc1ccc(OC(F)F)c(Cl)c1` (centres unmarked) to `CCOC(=O)c1cccc(NC(=O)CN2C(=O)C3CC=CCC3C2=O)c1` (centres unmarked), the “hERG current change (%, negative = inhibition) at 10uM” value falls from -2.68% to -42.6%.

Going from `COCCNc1nc(-c2cc(C)c(C)cc2C)cs1.Cl` to `CCOC(=O)C1=C(O)/C(=C\c2cccc(OC)c2)N=C1C`, the “hERG current change (%, negative = inhibition) at 10uM” value rises from -17.3% to -2.93%.

Compared with `O=C(Nc1ncccn1)C12CC3CC(CC(C3)C1)C2`, `O=C(OCC(=O)C12CC3CC(CC(C3)C1)C2)c1cccnc1Cl` is higher in “hERG current change (%, negative = inhibition) at 10uM” value: 5.07% for the first, 19.1% for the second.

First: CN(C)S(=O)(=O)c1ccc(N2CCCC2)c(C(=O)NC(c2ccccc2)c2ccccc2)c1
Second: O=C(NCc1ccccc1)N1CCN(c2ccccc2F)CC1
The “hERG current change (%, negative = inhibition) at 10uM” value of the first is higher: 6.73% for the first, 1.22% for the second.

First: Cc1ccccc1N1C(=O)c2sc3nc4c(c(=O)n3c2C1=O)CCC4
Second: Cc1ccccc1-c1nnc(SCC(=O)NCC2CCCO2)o1 (centres unmarked)
The “hERG current change (%, negative = inhibition) at 10uM” value of the first is lower: -7.23% for the first, 5.02% for the second.

Going from `COC(=O)[C@@]12CCCCN1[C@H](c1ccc(-c3cccc(Cl)c3)c(OC)c1)[C@@H]1C(=O)N(C)C(=O)[C@@H]12.O=C(O)C(F)(F)F` to `COc1ccc(Cl)cc1NC(=O)CSc1nnc(Cn2c(=O)sc3ccccc32)n1C`, the “hERG current change (%, negative = inhibition) at 10uM” value falls from 22% to -35.7%.

Compared with `Cc1ccc(C(=O)OCC(=O)Nc2ccc(S(N)(=O)=O)cc2)c(O)c1`, `NS(=O)(=O)c1cccc(NC(=O)COC(=O)C2CCCCC2)c1` is lower in “hERG current change (%, negative = inhibition) at 10uM” value: 5.87% for the first, 4.42% for the second.

Going from `Oc1ccc(-c2[nH]ncc2-c2nc3ccccc3s2)c(O)c1` to `Clc1nc(-c2ccccc2)cc(-c2ccc(Br)cc2)n1`, the “hERG current change (%, negative = inhibition) at 10uM” value falls from 23.5% to -32.2%.

First: CCOC(=O)CCC(=O)N(CCN(C(=O)CCC(=O)OCC)c1ccccc1)c1ccccc1
Second: O=C(O)c1ccccc1C(=O)OCCc1cc2ccccc2c(=O)o1
The “hERG current change (%, negative = inhibition) at 10uM” value of the first is lower: 1.97% for the first, 10.4% for the second.

Compared with `COc1ccc(/C=C/C(=O)NC(=S)Nc2ccccc2)cc1OC`, `O=C(/C=C/c1cccs1)NC(=S)Nc1ccc(C(=O)O)cc1` is higher in “hERG current change (%, negative = inhibition) at 10uM” value: 4.21% for the first, 6.78% for the second.

Going from `CC(=O)c1cc(-c2ccccc2)n(CCC(=O)NC2CCCCC2)c1C` to `O=C(COc1ccccc1-c1ccccc1)NNC(=O)NC1CCCCC1`, the “hERG current change (%, negative = inhibition) at 10uM” value falls from 5.92% to -42.8%.

Compared with `O=C(NCCCNC(=O)c1ccco1)c1ccc(F)cc1`, `CC(C)(C)c1ccc(-c2noc(CNC(=O)c3ccco3)n2)cc1` is lower in “hERG current change (%, negative = inhibition) at 10uM” value: 10.4% for the first, -8.2% for the second.

First: COc1ccc(Cl)cc1-c1n[nH]c(=S)n1C1CCCCC1
Second: COc1ccc(-n2c(C)cc(C(=O)CN3CCC(C)CC3)c2C)cc1
The “hERG current change (%, negative = inhibition) at 10uM” value of the first is higher: 9.11% for the first, -21% for the second.

Going from `CCC1=[N+](CC(=O)c2ccc(C)cc2)CCn2c(C)ccc21.[Br-]` to `CCN(CC)C(=O)CSc1nc(-c2ccc(C)cc2)nc2c1COC(C)(C)C2`, the “hERG current change (%, negative = inhibition) at 10uM” value falls from -3.75% to -14.2%.

Going from `Cc1ccc(-n2ncc3c(NCC4CCCO4)ncnc32)c(C)c1` (centres unmarked) to `COc1cccc(-c2nc3cc(C)ccc3o2)c1`, the “hERG current change (%, negative = inhibition) at 10uM” value rises from 12.9% to 15.2%.

Going from `CC(=O)c1cccc(Oc2ncccn2)c1` to `COc1ccc(C(=O)Nc2ccc3ccccc3c2)c(OC)c1`, the “hERG current change (%, negative = inhibition) at 10uM” value falls from 27.7% to 17.6%.

First: O=C(O)c1[nH]c(=O)[nH]c(=O)c1F
Second: CN(CC(=O)Nc1ccccc1Br)C(=O)Cn1[nH]c(=O)c2ccccc2c1=O
The “hERG current change (%, negative = inhibition) at 10uM” value of the first is higher: 19.6% for the first, 9.43% for the second.

Compared with `CCCC(C)C(=O)Nc1ccc2c(c1)OCCO2` (centres unmarked), `CCCC(=O)N1CCc2cc(OC)c(OC)cc2C1c1cc2cc3c(cc2[nH]c1=O)OCO3` (centres unmarked) is higher in “hERG current change (%, negative = inhibition) at 10uM” value: -3.74% for the first, -0.887% for the second.

Compared with `O=C(CC1C(=O)NCCN1Cc1c(F)cccc1Cl)NCc1ccccc1` (centres unmarked), `O=C(CCNC(=O)C1CCN(S(=O)(=O)c2ccc(F)cc2)CC1)Nc1ccccc1` is lower in “hERG current change (%, negative = inhibition) at 10uM” value: 17.1% for the first, 7.44% for the second.

Compared with `CCc1ccc(C(c2ccc(CC)cc2)C(Cl)Cl)cc1`, `CCn1c(SCc2nc3ccccc3c(=O)[nH]2)nnc1-c1ccncc1` is lower in “hERG current change (%, negative = inhibition) at 10uM” value: 21.3% for the first, -11.7% for the second.

Going from `CCN(CCCNC(=O)COc1cc(=O)n(C)c2ccccc12)c1cccc(C)c1` to `CCCCn1c(=O)c(C(=O)Nc2ncccc2C)c(O)c2ccccc21`, the “hERG current change (%, negative = inhibition) at 10uM” value rises from -51% to 14.6%.

Compared with `CCOc1ccccc1NC(=O)CN(C)S(=O)(=O)c1cnc[nH]1`, `COc1ccccc1C(=O)NNC(=O)c1ccc2ccccc2c1` is lower in “hERG current change (%, negative = inhibition) at 10uM” value: 28.4% for the first, -22.9% for the second.

Going from `OCCN1CCOCCN(CCO)CCN(CCO)CC1` to `CN1CCN(c2ccc(C(F)(F)F)cc2N)CC1`, the “hERG current change (%, negative = inhibition) at 10uM” value falls from 3.8% to -5.95%.

First: COc1ccc2[nH]cc(CCCN3C(=O)c4ccccc4C3=O)c2c1
Second: COc1ccc(NS(=O)(=O)c2cc(NC(=O)CNC(=O)c3ccc(C)s3)ccc2Cl)cc1
The “hERG current change (%, negative = inhibition) at 10uM” value of the first is higher: -4.87% for the first, -6.77% for the second.

Going from `Cc1nnc(SCC(=O)c2c(N)n(C)c(=O)n(C)c2=O)n1Cc1ccccc1` to `C/C(=N\Nc1cc(-c2ccccc2)nc(-c2ccccc2)n1)c1ccc(O)c(C)c1`, the “hERG current change (%, negative = inhibition) at 10uM” value falls from 13.6% to 4.51%.

First: Cn1c(CN2CCCCC2)nc2cc(NC(=O)c3cccs3)ccc21
Second: Cc1nc(N)c(Cc2ccc(Cl)cc2Cl)c(N)n1
The “hERG current change (%, negative = inhibition) at 10uM” value of the first is lower: -31.2% for the first, 18.8% for the second.

`C=CCn1cn[nH]c1=S` was tested, and the “hERG current change (%, negative = inhibition) at 10uM” value was 22.9%.
